Some of the results follow.

In assay [1] the test system is HSkMC (human skeletal muscle cells). As to the kind of experiment: cytotoxicity call (relative viability < 0.9). Particulars: 10 µM.
The test system of assay [2] is S. aureus RN4220. The assay is described as follows: growth inhibition call (relative growth <= 0.2). Particulars: 50 µM.
The subject of assay [3] is HepG2. The assay is described as follows: cytotoxicity call (relative viability < 0.9). Particulars: 10 µM.

As to `O=C(O)c1cc(=O)cc[nH]1`, in assay [1], the cytotoxicity call is “inactive”. Moreover, in assay [2], the growth inhibition call is “inactive”.
`Cc1noc(C)c1S(=O)(=O)Nc1ccc2c(c1)CC(=O)N([C@@H](C)CO)C[C@@H](C)[C@@H](CN(C)C(=O)NC1CCCCC1)O2`: in assay [1], the cytotoxicity call was “inactive”. The growth inhibition call in assay [2] is “inactive”.
Turning to `Cc1noc(C)c1NC(=O)N(C)C[C@@H]1OCCCC[C@H](C)Oc2ccc(NC(=O)Nc3ccccc3)cc2C(=O)N([C@H](C)CO)C[C@@H]1C`, the cytotoxicity call in assay [1] and in assay [3] was “inactive” each time. In addition, the growth inhibition call in assay [2] was “inactive”.
Consider `C[C@H]1CN([C@@H](C)CO)C(=O)c2cc(NC(=O)CCN3CCOCC3)ccc2O[C@@H]1CN(C)Cc1ccc2c(c1)OCO2`, for which the cytotoxicity call in assay [1] and in assay [3] was “inactive” throughout. Besides, in assay [2], the growth inhibition call is “inactive”.
Consider `COc1ccc(NC(=O)Nc2ccc3c(c2)C(=O)N([C@@H](C)CO)C[C@H](C)[C@@H](CN(C)CC2CCCCC2)OCCCC[C@H](C)O3)cc1`, for which the cytotoxicity call in assay [1] and in assay [3] was “inactive” throughout. Besides, the growth inhibition call in assay [2] is “inactive”.
In the case of `CN1CCN(C(=O)C[C@@H]2C[C@@H]3c4cc(NC(=O)c5ccc6c(c5)OCO6)ccc4O[C@@H]3[C@@H](CO)O2)CC1`, the cytotoxicity call in assay [1] and in assay [3] was “inactive” throughout. In assay [2], the growth inhibition call was “inactive”.
On to `C[C@H](NC(=O)C[C@@H]1C[C@@H]2c3cc(NC(=O)Nc4ccc(C(F)(F)F)cc4)ccc3O[C@@H]2[C@@H](CO)O1)c1ccccc1`, for which the cytotoxicity call in assay [1] was “inactive”. Besides, the cytotoxicity call in assay [3] was “active”. In addition, in assay [2], the growth inhibition call is “inactive”.
With `COc1ccc(COC[C@]23NC(=S)N[C@H](c4ccccc4O2)[C@H]3COC(=O)NCCCCCC(=O)NO)cc1`, the cytotoxicity call in assay [1] and in assay [3] was “inactive” each time. Also, the growth inhibition call in assay [2] is “inactive”.
For `COc1ccc(NC(=O)Nc2ccc3c(c2)CC(=O)N([C@@H](C)CO)C[C@H](C)[C@H](CN(C)S(C)(=O)=O)O3)cc1`, the cytotoxicity call in assay [1] and in assay [3] was “inactive” in each case. The growth inhibition call in assay [2] is “inactive”.
In the case of `C[C@H]1CN([C@@H](C)CO)C(=O)Cc2cc(NS(=O)(=O)c3cn(C)cn3)ccc2O[C@@H]1CN(C)C(=O)Nc1ccccc1`, the cytotoxicity call in assay [1] and in assay [3] was “inactive” in each case. The growth inhibition call in assay [2] was “inactive”.
In the case of `C[C@@H]1CN([C@@H](C)CO)C(=O)c2cc(NC(=O)Nc3ccc(C(F)(F)F)cc3)ccc2O[C@H]1CN(C)Cc1ccc(-c2ccccc2)cc1`, the cytotoxicity call in assay [1] and in assay [3] was “active” in each case. In assay [2], the growth inhibition call is “inactive”.
Regarding `C[C@@H]1CN([C@@H](C)CO)C(=O)c2c(c3ccccc3n2C)-c2ccccc2CO[C@@H]1CN(C)C(=O)N[C@H](C)c1ccccc1`, the cytotoxicity call in assay [1] and in assay [3] was “inactive” throughout. Also, the growth inhibition call in assay [2] is “inactive”.
As to `CN(C)CC(=O)N1CC2(C1)[C@H](c1ccccc1)[C@@H](CO)N2S(C)(=O)=O`, the cytotoxicity call in assay [1] and in assay [3] was “inactive” each time. In addition, the growth inhibition call in assay [2] is “inactive”.
For the compound `C[C@H](CO)N1C[C@H](C)[C@H](CN(C)C(=O)Nc2ccccc2)OCCCC[C@H](C)Oc2ccc(NS(=O)(=O)c3ccc(Cl)cc3)cc2C1=O`, the cytotoxicity call in assay [1] and in assay [3] was “inactive” each time. Also, the growth inhibition call in assay [2] is “inactive”.
For `Cc1noc(C)c1S(=O)(=O)N(C)C[C@@H]1Oc2c(NS(=O)(=O)c3cn(C)cn3)cccc2C(=O)N([C@@H](C)CO)C[C@H]1C`, the cytotoxicity call in assay [1] and in assay [3] was “inactive” each time. The growth inhibition call in assay [2] was “inactive”.
With `C[C@H]1CN([C@@H](C)CO)C(=O)c2cccc(NC(=O)c3cnccn3)c2O[C@@H]1CN(C)Cc1ccccc1`, the cytotoxicity call in assay [1] and in assay [3] was “inactive” throughout. Moreover, in assay [2], the growth inhibition call is “inactive”.
`C[C@H](CO)N1C[C@H](C)[C@@H](CN(C)Cc2ccncc2)OCCCC[C@H](C)Oc2ccc(NC(=O)Nc3ccc(F)cc3)cc2C1=O`: the cytotoxicity call in assay [1] and in assay [3] was “inactive” each time. In addition, the growth inhibition call in assay [2] is “inactive”.
For `CC(C)NC(=O)N(C)C[C@@H]1Oc2ccc(NC(=O)CCCN(C)C)cc2C(=O)N([C@H](C)CO)C[C@H]1C`, the cytotoxicity call in assay [1] and in assay [3] was “inactive” throughout. The growth inhibition call in assay [2] was “inactive”.
On to `C[C@H](NC(=O)C[C@H]1C=C[C@@H](NC(=O)CN2CCOCC2)[C@H](CO)O1)c1ccccc1`, for which the cytotoxicity call in assay [1] and in assay [3] was “inactive” throughout. Besides, in assay [2], the growth inhibition call is “inactive”.
With `CCCC(=O)Nc1ccc2c(c1)OC[C@@H](C)N(C(=O)CN1CCOCC1)C[C@@H](C)[C@H](OC)CN(C)C2=O`, the cytotoxicity call in assay [1] and in assay [3] was “inactive” in each case. Besides, the growth inhibition call in assay [2] was “inactive”.
As to `COc1ccc(S(=O)(=O)N(C)C[C@H]2Oc3ccc(NS(C)(=O)=O)cc3CC(=O)N([C@@H](C)CO)C[C@@H]2C)cc1`, the cytotoxicity call in assay [1] and in assay [3] was “inactive” each time. Further, the growth inhibition call in assay [2] is “inactive”.
Turning to `COc1ccc(C#Cc2ccc3c(c2)O[C@@H](CN(C)C(=O)c2ccccn2)[C@@H](C)CN([C@@H](C)CO)S3(=O)=O)cc1`, the cytotoxicity call in assay [1] and in assay [3] was “inactive” throughout. Besides, the growth inhibition call in assay [2] was “inactive”.
`Cc1noc(C)c1NC(=O)Nc1ccc2c(c1)C(=O)N([C@@H](C)CO)C[C@@H](C)[C@@H](CN(C)Cc1ccccc1)OCCCC[C@H](C)O2`: the cytotoxicity call in assay [1] and in assay [3] was “inactive” in each case. Moreover, the growth inhibition call in assay [2] is “inactive”.
On to `C[C@@H]1CCCCO[C@H](CN(C)C(=O)Nc2ccccc2)[C@H](C)CN([C@@H](C)CO)C(=O)c2cc(NS(=O)(=O)c3ccc(Cl)cc3)ccc2O1`, for which the cytotoxicity call in assay [1] and in assay [3] was “inactive” throughout. In assay [2], the growth inhibition call was “inactive”.
For the compound `CO[C@@H]1CN(C)C(=O)c2ccc(NC(=O)C3CC3)cc2OC[C@@H](C)N(C(=O)Cc2ccccn2)C[C@H]1C`, the cytotoxicity call in assay [1] and in assay [3] was “inactive” throughout. Moreover, in assay [2], the growth inhibition call is “inactive”.
Regarding `C[C@@H]1CCCCO[C@H](CN(C)C(=O)Cc2ccccc2)[C@@H](C)CN([C@H](C)CO)C(=O)c2cc(NS(=O)(=O)c3ccc(Cl)cc3)ccc2O1`, the cytotoxicity call in assay [1] and in assay [3] was “inactive” each time. In addition, in assay [2], the growth inhibition call is “inactive”.

For the origin of these results see the antibiotic and cytotoxicity screens of Wong et al. (2023).
